# According to PubChem BioAssay AID1347165 (National Center for Advancing Translational Sciences (NCATS), 2019):
# Screen size: about 220,000 compounds; about 5,700 (2.6%) were called active. Inconclusive means that the source gave no clear call. Such entries were picked first, then a sample of the others. Calls come from the whole dose curve; as a rule, active = well fitted inhibition curve with a large enough effect; inconclusive = small, poorly fitted or top-dose-only effect; inactive = no such curve, though single readings can be large or run the other way. A potency beside an inconclusive call is a rough fit, not a confirmed value.
# Target: Lysine-specific demethylase 5B (Homo sapiens) (UniProt Q9UGL1)
# Sequence of UniProt Q9UGL1 (Q9UGL1 whole entry, looked up): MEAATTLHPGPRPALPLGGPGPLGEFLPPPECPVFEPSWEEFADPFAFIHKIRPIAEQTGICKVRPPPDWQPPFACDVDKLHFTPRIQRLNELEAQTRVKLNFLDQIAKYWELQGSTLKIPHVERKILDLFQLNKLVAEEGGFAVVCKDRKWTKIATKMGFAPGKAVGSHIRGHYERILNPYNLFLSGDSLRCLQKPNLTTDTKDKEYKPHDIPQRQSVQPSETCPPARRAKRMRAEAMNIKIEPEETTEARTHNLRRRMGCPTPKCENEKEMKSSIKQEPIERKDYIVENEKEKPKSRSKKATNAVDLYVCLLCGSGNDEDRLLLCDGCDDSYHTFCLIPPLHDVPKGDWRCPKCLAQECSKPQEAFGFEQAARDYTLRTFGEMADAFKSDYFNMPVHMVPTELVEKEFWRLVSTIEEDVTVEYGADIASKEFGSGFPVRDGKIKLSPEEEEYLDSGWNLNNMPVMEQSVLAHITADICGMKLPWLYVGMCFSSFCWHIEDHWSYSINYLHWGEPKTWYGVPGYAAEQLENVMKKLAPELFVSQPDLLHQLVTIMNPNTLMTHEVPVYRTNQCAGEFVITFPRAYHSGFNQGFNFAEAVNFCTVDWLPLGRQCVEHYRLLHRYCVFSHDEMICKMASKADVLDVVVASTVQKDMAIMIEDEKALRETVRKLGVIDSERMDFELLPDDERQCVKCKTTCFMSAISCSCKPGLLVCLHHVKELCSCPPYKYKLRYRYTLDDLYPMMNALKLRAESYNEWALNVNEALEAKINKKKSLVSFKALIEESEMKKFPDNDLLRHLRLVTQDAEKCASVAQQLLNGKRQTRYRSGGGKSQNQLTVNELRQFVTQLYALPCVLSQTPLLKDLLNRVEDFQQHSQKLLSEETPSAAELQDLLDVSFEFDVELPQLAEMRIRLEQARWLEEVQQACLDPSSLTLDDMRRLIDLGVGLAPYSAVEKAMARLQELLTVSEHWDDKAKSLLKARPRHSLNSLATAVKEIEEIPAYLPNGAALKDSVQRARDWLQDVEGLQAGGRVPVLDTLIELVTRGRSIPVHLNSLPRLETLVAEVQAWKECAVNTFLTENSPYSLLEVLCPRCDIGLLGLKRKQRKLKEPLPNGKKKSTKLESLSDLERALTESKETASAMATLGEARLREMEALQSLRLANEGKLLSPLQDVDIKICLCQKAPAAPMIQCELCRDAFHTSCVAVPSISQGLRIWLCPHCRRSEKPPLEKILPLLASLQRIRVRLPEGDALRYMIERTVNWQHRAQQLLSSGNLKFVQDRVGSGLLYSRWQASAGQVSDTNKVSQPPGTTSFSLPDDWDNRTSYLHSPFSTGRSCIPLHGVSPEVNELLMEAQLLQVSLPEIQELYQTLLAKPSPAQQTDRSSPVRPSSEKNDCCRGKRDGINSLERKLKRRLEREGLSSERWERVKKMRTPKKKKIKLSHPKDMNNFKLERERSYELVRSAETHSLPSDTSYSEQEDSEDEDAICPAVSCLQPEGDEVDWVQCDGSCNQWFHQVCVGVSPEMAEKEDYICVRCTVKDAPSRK
# Test: Primary screen for KDM5B Histone Demethylases FDH-coupled qHTS; note: nearly all actives have a fitted effect of over 70% in size; for activity change, negative = inhibition: 0% is about no effect
# Details: FDH-coupled NADH fluorescence (FDH is formaldehyde dehydrogenase); activity change, negative = inhibition: at 57.7 µM (top of the series) unless noted
# In short: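 Inhibition is measured as reduced NADH fluorescence generation from FDH coupling to formaldehyde release. Truncated KDM5BΔAP at 200 nM final acts on H3K4me3 peptide (12.5 µM in substrate mix) in pH 7.5 HEPES buffer with Tween-20, 30 min, room temperature.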
# Potency is the fitted concentration of half-maximal effect; tags give direction and shape of the fitted curve.
SMILES,Potency,"activity change, negative = inhibition"
CCn1nc(C)c(CCNC(=O)c2cccc(C3CCNC3)c2)c1C (stereo not drawn),"inconclusive: 8.91 µM [inhibitor, full curve, poor fit]",
CC(Sc1cccc2cccnc12)C(=O)NC(=O)NC(C)(C)C (stereo not drawn),,inactive: -29.4%
Cc1ccc(Nc2cc(C)nc3c(C)c(C)cc([N+](=O)[O-])c23)c(C)c1,,inactive: -12.7%
CN1c2cc(C(=O)NCc3ccc(F)cc3F)ccc2C(=O)N2CCCCC21 (stereo not drawn),"inconclusive: 20 µM [inhibitor, partial curve, poor fit]",
O=C(c1ccc(Cl)cc1)N1CCNc2cnc(Nc3ccccc3)nc2C1,"inconclusive: 28.2 µM [inhibitor, single point]",
O=C(CSc1ncnc2sccc12)N(Cc1ccc(F)cc1)C1CCCCC1,,inactive: -5.94%
Cc1ccc(NC(=O)c2ccc3c(c2)C(O)CCCCCN3C)cc1 (stereo not drawn),"inconclusive: 20 µM [inhibitor, single point]",
Cc1cccc(Oc2ccc(S(=O)(=O)N3CCCCC3)cc2NC(=O)c2ccncc2)c1,,inactive: 1.58%
COc1ccc2nc([C@H]3CCN(Cc4cccc(Cl)c4)C3)[nH]c2c1,"inconclusive: 28.2 µM [inhibitor, partial curve, poor fit]",
Cc1noc(-c2ccc3c(c2)OCO3)c1C(=O)N1CCC(Cc2ccccc2)CC1,"inconclusive: 35.5 µM [inhibitor, single point]",
COc1ccc(-c2cc(N3CCC(NC(=O)c4ccc(OC)cc4C)C3)n[nH]2)cc1 (stereo not drawn),"inconclusive: 11.2 µM [inhibitor, partial curve]",
O=C(CNCC1CCCCC1)Nc1ccc(OC(F)(F)F)cc1,"inconclusive: 28.2 µM [inhibitor, partial curve, poor fit]",
Cc1ccc2nc([C@H]3CCN(C(=O)Nc4ccccc4)C3)[nH]c2c1,,inactive: -9.34% [at 86.2 µM]
COc1cc(NC(=O)c2ccc(C)cc2C)ccc1NC(=O)c1cccs1,"inconclusive: 31.6 µM [inhibitor, partial curve, poor fit]",
C=C(C)COc1cccc(NC(=O)c2ccccc2)c1,,inactive: 12.8%
CCc1ccccc1-n1c(C)nc2cc(C(=O)NCCc3ccc(Cl)cc3)ccc21,,inactive: -24.2%
Cc1ccc(CNC(=O)C2CCN(S(=O)(=O)c3cn(C)cn3)CC2)cc1,,inactive: -19.2%
O=C(NCc1ccc(C(F)(F)F)cc1)c1ccc(CN2CCCCC2)cc1,,inactive: -20.2%
CCCn1c2ccccc2c2cnn(CC(=O)N3CCCC(C)C3)c(=O)c21 (stereo not drawn),"inconclusive: 25.1 µM [inhibitor, partial curve, poor fit]",
CC(=O)C1=CC[C@H]2[C@@H]3CC=C4C[C@@H](O)CC[C@]4(C)[C@H]3CC[C@]12C,,inactive: 4.8%
Nc1nccnc1C(=O)NCC(c1ccccc1)c1c[nH]c2ccccc12 (stereo not drawn),"inconclusive: 39.8 µM [inhibitor, single point]",
COc1ccc(C(=O)NC2CCCNC2=O)cc1S(=O)(=O)N(C)C (stereo not drawn),,inactive: 10.4%

SMILES,Potency,"activity change, negative = inhibition"
COC(=O)c1ccc2c(c1)N(Cc1ccc(Cl)cc1)C(=O)c1ccccc1S2,"inconclusive: 28.2 µM [inhibitor, single point]",
COc1ccc2[nH]c3c(c2c1)CCNC31CCN(C(=O)C2CCN2C2CCCCC2)CC1 (stereo not drawn),"inconclusive: 28.2 µM [inhibitor, partial curve]",
CC(C)c1ccc(Nc2ncnc3onc(-c4ccc(F)cc4)c23)cc1,"inconclusive: 39.8 µM [inhibitor, partial curve, poor fit]",
COc1cc(NC(=O)N2CCC(CN3CCOCC3)CC2)cc(OC)c1OC,"inconclusive: 3.16 µM [inhibitor, full curve, poor fit]",
CCN1CCN(Cc2cn(-c3ccccc3F)nc2-c2cc(C)sc2C)CC1,"inconclusive: 7.08 µM [inhibitor, partial curve, poor fit]",
Cc1nc(CSc2ccccc2C(=O)Nc2nc(-c3ccc(C)c(C)c3)cs2)no1,"inconclusive: 22.4 µM [inhibitor, single point]",
O=C(O)c1ccccc1/C=N/Nc1ccc(S(=O)(=O)Nc2ccc(Cl)cc2)cc1[N+](=O)[O-],"inconclusive: 39.8 µM [inhibitor, single point]",
C/C(=N/Nc1ccccc1)c1ccc([N+](=O)[O-])cc1,,inactive: -11.3%
COc1ccc2c(C)c(CC(=O)NCCCn3ccnc3)c(=O)oc2c1OC,"inconclusive: 22.4 µM [inhibitor, partial curve, poor fit]",
CO[C@@H]1CO[C@H]2[C@@H]1OC[C@@H]2NC(=O)C1CCC1,"inconclusive: 31.6 µM [inhibitor, single point]",
Oc1ccccc1CN1C[C@H](O)C[C@H]1c1nc(-c2ccncc2)no1,"inconclusive: 39.8 µM [inhibitor, single point]",
CN1CCC2(C1)CN(CC1CCOCC1)c1ccc(C(=O)NCCCn3ccnc3)cc12 (stereo not drawn),active: 39.8 µM,
CCCc1nnc2n1N=C(c1ccc([N+](=O)[O-])cc1)CS2,"inconclusive: 20 µM [inhibitor, single point]",
O=c1ncn(Cc2ccccc2)c2ccc(-c3ccc(F)cc3F)nc12,active: 28.2 µM,
COC(=O)CN1C(=O)[C@@H]2C[C@@H](O)CN2C2(CN(Cc3ccncc3)C2)C1=O,"inconclusive: 35.5 µM [inhibitor, single point]",
COc1ccccc1-c1cc(C(=O)N2CCOCC2)nn2cccc12,,inactive: 7.5% [at 149 µM]
Cc1cc(C[C@@H]2COC[C@@H]2NC(=O)c2cc(CC(C)C)nc(N)n2)on1,active: 31.6 µM,
COc1ccccc1CNC(=O)CCC1N=C2c3ccccc3N=C(SCC(=O)Nc3ccc(N(C)C)cc3)N2C1=O (stereo not drawn),"inconclusive: 22.4 µM [inhibitor, partial curve, poor fit]",
Cc1ccc(-n2nnnc2SCC(=O)N2CCN(CC(=O)N3CCCC3)CC2)cc1,,inactive: 5.49%
c1ccc(Nc2ccnc(Nc3ccccc3)n2)cc1,"inconclusive: 25.1 µM [inhibitor, single point]",
CC(=O)c1cccc(CN2CCCC(C(=O)Nc3ccc(-c4ccco4)cc3)C2)c1 (stereo not drawn),"inconclusive: 11.2 µM [inhibitor, partial curve, poor fit]",
